Reference: article PMC4336329 (PLoS ONE, 2015)
Hit rate of the full screen: of about 310,000 compounds, about 14,000 (4.5%) showed an effect of 50% or more. Effects have a minus sign here. The list shows a part of the results.

What follows are molecules tested against human ether-à-go-go-related gene (hERG) potassium channel (human, UniProt Q12809) (assay: primary screen, population patch clamp on CHO cells stably expressing hERG).
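Also: peak tail current of the secondary pulse compared with the same well before compound.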

human ether-à-go-go-related gene (hERG) potassium channel, sequence (Q12809 whole entry, looked up): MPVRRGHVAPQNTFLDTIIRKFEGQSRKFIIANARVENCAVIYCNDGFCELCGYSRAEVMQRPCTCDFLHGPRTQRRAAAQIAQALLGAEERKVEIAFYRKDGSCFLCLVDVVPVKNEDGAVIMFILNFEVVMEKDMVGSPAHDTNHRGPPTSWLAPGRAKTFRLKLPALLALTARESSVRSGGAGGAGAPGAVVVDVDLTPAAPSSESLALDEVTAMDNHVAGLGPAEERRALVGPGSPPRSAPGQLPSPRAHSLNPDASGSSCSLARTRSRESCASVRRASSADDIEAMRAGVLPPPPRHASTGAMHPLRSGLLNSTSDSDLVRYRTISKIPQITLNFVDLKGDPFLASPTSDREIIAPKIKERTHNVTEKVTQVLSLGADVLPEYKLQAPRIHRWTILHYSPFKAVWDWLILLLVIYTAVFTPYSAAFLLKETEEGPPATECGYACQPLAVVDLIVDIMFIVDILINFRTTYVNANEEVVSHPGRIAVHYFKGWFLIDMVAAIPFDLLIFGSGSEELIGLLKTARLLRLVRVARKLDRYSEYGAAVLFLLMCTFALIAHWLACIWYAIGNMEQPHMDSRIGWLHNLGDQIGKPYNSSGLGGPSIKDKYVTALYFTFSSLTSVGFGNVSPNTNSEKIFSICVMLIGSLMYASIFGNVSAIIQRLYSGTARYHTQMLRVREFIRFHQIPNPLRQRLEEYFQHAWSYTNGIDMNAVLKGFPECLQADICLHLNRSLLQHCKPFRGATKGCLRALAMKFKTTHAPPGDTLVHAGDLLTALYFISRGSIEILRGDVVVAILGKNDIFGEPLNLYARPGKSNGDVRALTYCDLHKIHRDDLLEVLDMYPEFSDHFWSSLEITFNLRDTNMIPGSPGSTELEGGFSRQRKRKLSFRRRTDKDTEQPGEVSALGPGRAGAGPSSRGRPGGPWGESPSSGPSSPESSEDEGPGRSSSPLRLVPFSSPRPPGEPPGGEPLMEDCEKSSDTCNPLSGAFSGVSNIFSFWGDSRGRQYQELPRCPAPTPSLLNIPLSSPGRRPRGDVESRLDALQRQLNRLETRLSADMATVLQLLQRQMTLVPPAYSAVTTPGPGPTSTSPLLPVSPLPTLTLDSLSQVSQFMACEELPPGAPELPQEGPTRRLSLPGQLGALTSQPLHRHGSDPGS

| Compound | hERG current change (%, negative = inhibition) at 10uM |
| --- | --- |
| CCOc1ccc(-c2nn(-c3ccccc3)cc2/C=C(\C#N)S(=O)(=O)c2ccccc2)cc1C | 8.69% |
| Nc1cc(=O)nc(SCC(=O)Nc2ccccc2)n1-c1ccccc1 | 25.5% |
| COC(=O)CCC(=O)N1CCc2cc(S(=O)(=O)N3CCc4ccccc43)ccc21 | -8.24% |
| COc1cccc(C(C(=O)NCC2CCCO2)N(CC2CCCO2)C(=O)CN2C(=O)c3ccccc3S2(=O)=O)c1 (stereo not shown) | 19.1% |
| CCc1ncc(CN2CCCC(C(=O)Nc3cccc(-c4cccc(C)c4)c3)C2)cn1 (stereo not shown) | -48.8% |
| CN(C)Cc1c(O)ccc2c3c(c(=O)oc12)CCCCC3 | 3.55% |
| Cc1ccc(NNC(=O)c2snnc2C)cc1Cl | -0.415% |
| O=C(Nc1cc2nn(-c3ccccc3)nc2cc1Cl)c1ccco1 | 17.3% |
| Oc1ccccc1N1CCN(c2nnnn2-c2ccccc2)CC1 | -0.8% |
| O=C(COC(=O)c1ccc(S(=O)(=O)NCc2ccco2)cc1)c1ccccc1 | 0.339% |
| Cc1ccc(C(=O)N2CCCc3ccccc32)c(F)c1F | 8.43% |
| O=C(CNC(=S)N(Cc1ccc(F)cc1)C1CCCCC1)NCC1CCCO1 (stereo not shown) | -4.2% |
| CCCn1ncc(CN2CCN(Cc3ccsc3)C(CCO)C2)c1C (stereo not shown) | -5.55% |
| Cc1ccc2ncnc(Nc3cccc([N+](=O)[O-])c3)c2c1 | -44.4% |
| COC(=O)c1cc(COc2ccc3c4c(c(=O)oc3c2)CCC4)c(C)o1 | 4.68% |
| COC(=O)c1ccc(NC(=O)CCS(=O)(=O)c2ccc3c(c2)NC(=O)C(C)S3)cc1 (stereo not shown) | 11.7% |
| CN(C(=O)CC1C(=O)NCCN1Cc1c(F)cccc1Cl)C1CCOCC1 (stereo not shown) | 17.9% |
| COc1ccc(Cn2nnnc2CN2CCc3ccccc32)cc1 | 4.01% |
| Cc1cc(S(=O)(=O)NCCCN2CCOCC2)c(C)cc1Cl | -13.9% |
| O=C(CCCOc1ccccc1)Nc1cc(S(=O)(=O)N2CCOCC2)ccc1N1CCOCC1 | -39.1% |
| COc1ccc(NC(=O)c2ccc(-c3ccc(OC)cc3)s2)cc1 | 11.4% |
| COc1cc(C(C(=O)NCC2CCCO2)N(C(=O)Cn2nnc3ccccc32)c2ccc(OC)c(OC)c2)ccc1O (stereo not shown) | 18.4% |

| Compound | hERG current change (%, negative = inhibition) at 10uM |
| --- | --- |
| Cl.O=C(O)c1ccc(CNCc2ccc(Cl)cc2Cl)cc1 | 18.7% |
| CCn1cc([N+](=O)[O-])c(C(=O)Nc2ccn(Cc3ccccc3)n2)n1 | -3.52% |
| CCC(C)(C)NCC(=O)Nc1ccc(OC(F)(F)F)cc1 | -32.7% |
| CSc1ncccc1C(=O)OCC(=O)Nc1cc(C(F)(F)F)ccc1N1CCOCC1 | -20.2% |
| CC(=O)c1cccc(CN2CCN(C(C)C)C(CCO)C2)c1 (stereo not shown) | 8.34% |
| COc1ccc2c3n(nc2c1)CCN=C3c1cc(Cl)c(N)c(Cl)c1 | -1.63% |
| CCOC(=O)c1c(/N=C/C2C(=O)CC(C)(C)CC2=O)sc(C)c1C | -4.77% |
| Cc1cccc(C(=O)OC(C)CN2C(C)CCCC2C)c1.Cl (stereo not shown) | -21% |
| CC1CCCCC12NC(=O)N(CC(=O)OCC(=O)N(C)C1CCCCC1)C2=O (stereo not shown) | 1.66% |
| CCCCN(C)C(=O)CNC(=O)c1nn(-c2ccc(OC)cc2OC)c(=O)c2ccccc12 | 9.79% |
| O=C(N/N=C/c1ccc(Cl)cc1)C1CC12CCC2 (stereo not shown) | 3.14% |
| NS(=O)(=O)c1ccccc1NC(=S)Nc1ccccc1S(N)(=O)=O | 8.87% |
| COc1ccc(C(=O)CSc2n[nH]c(-c3ccco3)n2)cc1 | 4.1% |
| O=[N+]([O-])c1cccc(-c2ccc3nnc(SCc4ccccn4)n3n2)c1 | -33.5% |
| COc1ccc(S(=O)(=O)N(C)c2ccc(C(=O)NC3CC3)cc2)cc1 | -12.6% |
| FC(F)(F)c1ccccc1NC(=S)NN1CCOCC1 | 14% |
| O=C(COc1ccc([N+](=O)[O-])cc1)Nc1cccc2nsnc12 | 9.19% |
| CCn1c(SCC(=O)Nc2nnc(C)s2)nc2c(c1=O)SC(C)C2 (stereo not shown) | 11.1% |
| COc1ccccc1C(=O)Nc1cccc2c1CCCC2 | 11.9% |
| CCOC(=O)c1ccccc1CN1C(=O)c2ccccc2S1(=O)=O | -11.1% |
| CCn1c(CSc2nnc(-c3ccc4c(c3)OCO4)o2)nc2cc(S(=O)(=O)N(C)C)ccc21 | -24.9% |
| N#CC1(C#N)C2=C(CCCC2)NC(c2ccccc2)C1(C#N)C#N (stereo not shown) | 7.46% |

| Compound | hERG current change (%, negative = inhibition) at 10uM |
| --- | --- |
| O=C(C1=NNC2C(=O)N(c3ccccc3)C(=O)C12)c1nc(Cl)ccc1Cl (stereo not shown) | 0.639% |
| O=C(NC1CCCC1)C(c1ccncc1)N(C(=O)Cc1cccs1)c1ccc(F)cc1 (stereo not shown) | 7.57% |
| CC(C)C(NS(=O)(=O)c1cccc2nsnc12)C(=O)NC1CCCCC1 (stereo not shown) | 5.4% |
| N#CC(c1ccccn1)(c1ncc(C(F)(F)F)cc1Cl)N1CCOCC1 (stereo not shown) | -3.15% |
| COc1cc(C(=O)Nc2ccc(N(C)C)cc2)cc(OC)c1OC | 3.71% |
| N#CCc1ccccc1C(=O)OCC(=O)N(Cc1ccccc1)Cc1ccccc1 | -52.1% |
| CC(=O)Nc1cccc(C(=O)/C=C/c2ccc(/C=C/C(=O)c3cccc(NC(C)=O)c3)cc2)c1 | -9.63% |
| CN(C)c1ccc2c3c(cccc13)C(=O)N(c1ccccc1)C2=O | 15.5% |
| O=C(COc1ncnc2ccccc12)NC1CCS(=O)(=O)C1 (stereo not shown) | 10.6% |
| CC(C)CCSc1cc(NCCO)c([N+](=O)[O-])c2nonc12 | -5.61% |
| C=CCN(C(=O)CNC(=O)c1ccco1)C(C(=O)NC1CCCC1)c1cccs1 (stereo not shown) | 9.37% |
| COc1ccc(S(=O)(=O)NCc2cccnc2)cc1Br | -13.6% |
| N/C(=N\OC(=O)c1ccccc1Cl)c1ccccn1 | 14.5% |
| CC(=O)Oc1ccc([N+](=O)[O-])cc1N1C(=O)c2ccccc2C1=O | 7.88% |
| COc1cccc(C(=O)O/N=C(\N)Cc2ccc(Cl)cc2)c1 | -22% |
| CCOc1ccc(CN2CCCC(CNC(=O)c3ccc(F)cc3)C2)cc1CO (stereo not shown) | -68.1% |
| Cc1cc(C)n(-c2ccc(C(=O)OCC(=O)NC(c3ccccc3)c3ccccc3)cc2)n1 | 43.2% |
| CCC(=O)c1ccc(OCC(=O)OCC(=O)c2c(N)n(C)c(=O)n(C)c2=O)cc1 | 5.93% |
| CCn1cc(C(=O)N2CCN(c3ccccn3)CC2)c(=O)c2cc(S(=O)(=O)N(C)C3CCCCC3)ccc21 | -63.1% |
| C=CCSc1nnc(NC(=O)c2c(CC)noc2C)s1 | 0.691% |
| O=C(CCn1c(=O)oc2cc(Cl)ccc21)Nc1ccc(N2CCOCC2)cc1 | 7.91% |
| CC[C@@]12C(=O)N(c3ccc(C)cc3)C(=O)N1[C@H](c1cccc(C)c1)[C@@H]1C(=O)N(Cc3ccccc3)C(=O)[C@@H]12 | 16% |

| Compound | hERG current change (%, negative = inhibition) at 10uM |
| --- | --- |
| COc1ccccc1-c1nn(Cc2ccccc2)cc1C(=O)N1CCN(c2ncccn2)CC1 | -10.3% |
| CN(C)CC(C)(C)NS(=O)(=O)c1ccc(Cl)cc1 | -2.3% |
| COc1ccc(-c2cc(C(=O)NNC(=O)c3csc(N4CCOCC4)n3)c3ccccc3n2)cc1 | -3.66% |
| COc1cc(/C=N/NC(=O)CCN2CCN(c3ccccc3)CC2)cc(OC)c1OC | -22.2% |
| COc1ccc(-n2c(=O)c3ccccc3c3ccccc3c2=O)c(OC)c1 | 6.64% |
| CCCC(CCC)C(=O)OC1C[C@H]2CC[C@@H](C1)[N+]2(C)C.[Br-] (stereo partly shown) | 2.03% |
| COc1ccccc1N(CC(=O)N1CCCCCC1)S(=O)(=O)c1ccc(C)cc1 | -20.9% |
| CCN(C(=O)c1cc2c(=O)[nH]c3ccc(C)cc3c2s1)c1cccc(C)c1 | -0.235% |
| CCOC(=O)c1nnn(-c2nonc2N)c1CSc1nnc(N)s1 | -6.58% |
| CC1CCCCN1CC(=O)Nc1sc2c(c1C#N)CCC2 (stereo not shown) | 2.38% |
| NC(=O)c1ccsc1NC(=O)CS(=O)(=O)c1ccc(F)cc1 | -68.2% |
| Cc1ccccc1NC(=O)c1ccc(S(=O)(=O)N(C)C)cc1 | -12.6% |
| COc1ccc(Cl)cc1NS(=O)(=O)c1cccc(C(=O)NCCCN2CCCC2=O)c1 | 3.09% |
| CCOC(=O)CCN(c1ccccc1)S(=O)(=O)c1ccc(-c2ccc(=O)[nH]n2)s1 | -29.3% |
| CN(C)CCCNC(=S)N(CCCN(C)C)Cc1cc2cc3c(cc2[nH]c1=O)OCO3 | 10.4% |
| CCCN(C(=O)c1ccccc1Cc1ccccc1)C1CCS(=O)(=O)C1 (stereo not shown) | -0.454% |
| CC(C)CCSc1ncnc2c1oc1nc3c(cc12)COC(C)(C)C3 | -1.75% |
| COc1ccc(S(=O)(=O)NCCc2c(C)nn(C)c2Oc2ccccc2)cc1 | -12.5% |
| C/C=N/NC(=O)CCNC(=O)c1ccccc1 | 14.3% |
